# Several values for one entry are separate records, joined by “and”; a condition that tells them apart may be missing. Equal values may be shown once. Screen size: about 110,000 compounds; about 230 (0.21%) showed an effect of 50% or more. The list shows a part of the results.
# Molecular target: DPAP1 (Plasmodium falciparum, UniProt Q8IIJ9)
# Test: primary screen, percent inhibition; read by cleavage of a fluorogenic dipeptide substrate; higher = more effect of the substance
# Set-up: species or system P. falciparum D10 trophozoite lysates; single well
# 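Also: 30 min substrate incubation versus DMSO and 10 µM JCP410 controls.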
# Sequence of DPAP1 (Q8IIJ9 whole entry, looked up): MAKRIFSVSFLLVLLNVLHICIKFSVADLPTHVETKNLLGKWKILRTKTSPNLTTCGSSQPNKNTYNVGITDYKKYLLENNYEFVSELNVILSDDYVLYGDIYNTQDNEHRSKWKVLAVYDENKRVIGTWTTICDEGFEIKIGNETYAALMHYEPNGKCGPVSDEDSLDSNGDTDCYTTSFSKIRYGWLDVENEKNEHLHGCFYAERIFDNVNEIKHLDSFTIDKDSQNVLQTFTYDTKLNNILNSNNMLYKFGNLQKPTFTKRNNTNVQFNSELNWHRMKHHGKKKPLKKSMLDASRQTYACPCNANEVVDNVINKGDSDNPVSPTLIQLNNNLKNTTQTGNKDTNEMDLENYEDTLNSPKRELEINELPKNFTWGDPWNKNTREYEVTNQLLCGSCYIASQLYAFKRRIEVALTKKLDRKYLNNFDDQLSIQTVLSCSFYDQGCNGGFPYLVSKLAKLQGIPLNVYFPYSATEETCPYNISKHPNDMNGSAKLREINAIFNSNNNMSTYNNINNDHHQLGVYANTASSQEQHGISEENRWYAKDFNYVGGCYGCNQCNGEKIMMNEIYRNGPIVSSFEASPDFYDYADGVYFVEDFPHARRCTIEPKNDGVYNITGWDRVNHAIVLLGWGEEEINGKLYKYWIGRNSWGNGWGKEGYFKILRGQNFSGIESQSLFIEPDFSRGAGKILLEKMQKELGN
row,Compound,% Inhibition @ 10 uM
1,N#CC1=C(N)OC2=C(C(=O)CCC2)C1c1cccnc1 (stereo not drawn),-5.5%
2,O=c1oc2ccccc2nc1/C=C(\O)c1ccc([N+](=O)[O-])cc1,-2.55%
3,CC(NC(=O)c1ccc(F)cc1)c1nc2ccccc2n1C (stereo not drawn),4.02%
4,COC(=O)c1ccc(Cn2cnc3c(cnn3-c3ccc(C)c(C)c3)c2=O)o1,-1.75%
5,COc1ccccc1C(=O)Nc1c(C(=O)N2CCN(C(=O)c3ccco3)CC2)oc2ccccc12,-9.61%
6,O=c1oc(-c2ccncc2)nc2sc3c(c12)CCCCC3,-6.08%
7,CCOC(=O)c1ccc(Oc2nc(N3CCOCC3)nc(N3CCOCC3)n2)cc1,0.401%
8,O=c1c2ccccc2ncn1Cc1cccc2ccccc12,-1.22%
9,O=C(O)c1cnc(N2CCOCC2)nc1C1CCNCC1,-4.69%
10,COC(=O)c1sccc1NC(=O)c1nn(C)c2c1COc1ccccc1-2,-1.72%
11,CCOC(=O)c1c2n(c3cc(Cl)ccc3c1=O)CCC2,2.47%
12,CCOc1ccc(Nc2nc(C(F)(F)F)c(-c3ccccc3)s2)cc1,-1.74%
13,Cc1ccc(NC(=O)Cn2cc(CO)c3ccccc32)cc1,-2.29%
14,Cc1cc(C)nc(NC(=O)NS(=O)(=O)Nc2ccc(-c3ccccc3)cc2)n1,-0.999%
15,CCCCSCc1cc(C(=O)O)oc1C(C)(C)C,2.98%
16,CS(=O)(=O)N(CC(=O)Nc1ccccc1)c1cccc(F)c1,-10.1%
17,CCOC(=O)c1c(S(=O)(=O)NCC2CCCO2)c(C)n(C)c1C (stereo not drawn),-2.44%
18,CCCCc1ccc(C2C3=C(O)CC(C)(C)CC3=NC(C)=C2C(=O)OCC)s1 (stereo not drawn),0.215%
19,O=C(O)c1cc(N2C(=O)C3CCCCC3C2=O)ccc1Cl (stereo not drawn),-2.78%
20,CC(=O)Nc1cccc(NC(=O)c2ccc(Br)cc2)c1,-0.0404%
21,COc1cc(C2C(C#N)=C(N)OC3=C2C(=O)CCC3)cc(OC)c1OC (stereo not drawn),0.687%
22,Cc1oc2cc(OC(C)C)ccc2c(=O)c1Oc1ccccc1F,-6.24%

row,Compound,% Inhibition @ 10 uM
1,CC(C)(C)C1CC(O)CN(C(C)(C)C)C1 (stereo not drawn),-8.04%
2,c1coc(CNC2CCc3ccccc3C2)c1 (stereo not drawn),3.19%
3,CC1=C(c2ccc(C)cc2)S(=O)(=O)N=C1NCCCN1CCN(Cc2ccccc2)CC1,2.27%
4,CC1=C(C(=O)OCCc2ccccc2)C(c2cccnc2)C2=C(O)CC(c3ccccc3)CC2=N1 (stereo not drawn),11.9%
5,NCCc1nc2ccccc2[nH]1,4.52% and -1.29%
6,CCN(CC)C(=O)C1CCCN(Cc2ccc(F)cc2F)C1 (stereo not drawn),-7.49%
7,CC1CCN(c2ccc3nnc(CCC(=O)N4CCN(C)CC4)n3n2)CC1,0.842%
8,O=C(Nc1ccc(OC(F)(F)F)cc1)c1ccc(-c2ccccc2)cc1,1.26%
9,CC(=O)Nc1ccc(N2C(=O)CC(N3CCN(c4ccccc4)CC3)C2=O)cc1 (stereo not drawn),3.89%
10,CC(C)NCC1(O)CCC2C3CCC4CC(O)CCC4(C)C3CCC21C (stereo not drawn),5.04%
11,CCCC1=C(C(=O)OCC)C(c2cccc3ccccc23)C(C#N)=C(N)O1 (stereo not drawn),-2.22%
12,CC(C)NCc1nc2ccccc2c(=O)n1-c1ccc(F)cc1,3.58%
13,CC(C)c1ccc(S(=O)(=O)N2CCN(S(=O)(=O)c3ccc(C(C)C)cc3)C(C)C2)cc1 (stereo not drawn),-1.95%
14,CCOC(=O)N1CCC(NCc2ccc(F)cc2)CC1,-0.0908%
15,CCCCN(C1CCS(=O)(=O)C1)S(=O)(=O)c1ccc(Cl)cc1 (stereo not drawn),-4.78%
16,CSc1nc(O)c2c3c(sc2n1)COC(C)(C)C3,0.392%
17,CCCCOC(=O)NS(=O)(=O)c1ccccc1,-9.32%
18,Cc1ccc2oc(-c3ccccc3F)c(O)c(=O)c2c1,4.96%
19,CC1CCN(C(=O)c2cc3oc4ccccc4c3n2C)CC1,4.55%
20,CC1CCCC(NC(=O)c2nn(C)c3c2CS(=O)(=O)c2ccccc2-3)C1C (stereo not drawn),3.71%
21,COc1ccc(C2CC(=O)C(/C=N/CCCO)=C(O)C2)cc1 (stereo not drawn),-1.06%
22,CCCNC(=O)c1cc(-c2ccc(Cl)cc2)[nH]n1,-2.93%

row,Compound,% Inhibition @ 10 uM
1,CC(=O)Nc1cccc(NC(=O)c2ccc(C)cc2)c1,1.43%
2,CC1(C)CCc2c(nc3ccccc3c2O)O1,4.28%
3,N#C/C(=C\Nc1ccccc1Cl)c1nc2ccccc2o1,4.39%
4,CC(CCc1ccccc1)N1CCCC1CO (stereo not drawn),-11.1%
5,O=S(=O)(Cc1ccccc1)c1nc2ccccc2n1Cc1ccccc1F,-0.0735%
6,Cn1cc(S(=O)(=O)N2CCCC2)cc1C(=O)NCCCN1CCN(C2CCCCC2)CC1,-0.361%
7,O=C1c2ccccc2C(=O)N1CNCc1cc(O)nc(O)n1,-6.25%
8,Cc1ccc(-c2nc(CS(=O)CC(=O)NCCC(C)C)c(C)o2)cc1 (stereo not drawn),-6.64%
9,Cc1ccc(C(=O)c2sc3nc4c(cc3c2N)CCC4)c(C)c1,2.7%
10,COCCNC(=O)c1cc(-c2ccco2)on1,-1.29%
11,Cc1ccc2cc3cc(C(=O)NCc4ccc5c(c4)OCO5)sc3nc2c1,-2.99%
12,CCOc1ccc2nc(Nc3nc(O)c4c(n3)CCC4)nc(C)c2c1,3.09%
13,Cc1ccc(CNC(=O)CSc2nc3ccccc3c3nc(C)nn23)cc1,1.74%
14,COc1ccc(NC(=O)c2cccc(S(=O)(=O)NCc3ccccc3)c2)cc1,1.64%
15,c1cncc(-c2nc3c4c5c(sc4ncn3n2)CCCCC5)c1,6.52%
16,CN(Cc1ccccc1)C(=O)Cn1nc(-c2ccc(Cl)cc2)ccc1=O,1.62%
17,CCc1cccc(NC(=O)c2ccc(OC)cc2)c1,9.41%
18,CCOCCCNC(=O)CCn1nc(-c2ccc(Cl)cc2)ccc1=O,-1.79%
19,C=Cc1ccc(Cn2c(C(=O)O)c(CNCc3ccco3)c3ccc(C)cc32)cc1,2.96%
20,O=C(NCCC1=CCCCC1)C1CCN(S(=O)(=O)c2cccc3nsnc23)CC1,-3.35%
21,COc1ccccc1C1C2=C(O)CCCC2=NC(C)=C1C(=O)Nc1cccc(C)n1 (stereo not drawn),-10.4%
22,COc1ccc(NC(=O)C2=C(C)NC(=O)NC2c2ccc(OC)cc2)cc1 (stereo not drawn),9.5%

# From paper PMC6919601, “Identification of Plasmodium dipeptidyl aminopeptidase allosteric inhibitors by high throughput screening” (PLoS ONE, 2019)
